Test results as given in PubChem BioAssay AID1460 (National Center for Advancing Translational Sciences (NCATS), 2008).
Where “and” joins values, the source holds several entries; their conditions need not be identical. Equal entries are not always repeated. About 5,800 (2.1%) of roughly 270,000 compounds were called active. The inconclusive results got no clear call from the source; some entries with a clear call stand among them for comparison. Calls follow the shape of the dose curve; as a rule, active = well fitted inhibition curve with a large enough effect; inconclusive = small, poorly fitted or top-dose-only effect; inactive = flat fitted curve, though single readings scatter. Potencies beside an inconclusive call are fits to weak or partial responses and may not hold up.

molecular target: Microtubule-associated protein tau (Homo sapiens) (UniProt P10636); assay: qHTS for Inhibitors of Tau Fibril Formation, Thioflavin T Binding; settings: recombinant tau K18 P301L (four-repeat tau fragment), heparin-induced fibrillization, ThT fluorescence; series mostly up to 57.4 µM; also: nearly all actives have a fitted effect of over 55% in size
Method in brief: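 Heparin-induced (20 uM) aggregation of recombinant human K18 P301L tau, 15 uM unlabeled with 0.24 uM labeled, pH 7 acetate buffer, 6 hr at 37 C with compound. Fibrils quantified by 30 uM ThT fluorescence after 1 hr ambient incubation.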
Potency is read from the fitted curve at half-maximal effect; tags tell the direction and shape of the fitted curve.

UniProt P10636, sequence (P10636 whole entry, looked up, the tested form may be a part): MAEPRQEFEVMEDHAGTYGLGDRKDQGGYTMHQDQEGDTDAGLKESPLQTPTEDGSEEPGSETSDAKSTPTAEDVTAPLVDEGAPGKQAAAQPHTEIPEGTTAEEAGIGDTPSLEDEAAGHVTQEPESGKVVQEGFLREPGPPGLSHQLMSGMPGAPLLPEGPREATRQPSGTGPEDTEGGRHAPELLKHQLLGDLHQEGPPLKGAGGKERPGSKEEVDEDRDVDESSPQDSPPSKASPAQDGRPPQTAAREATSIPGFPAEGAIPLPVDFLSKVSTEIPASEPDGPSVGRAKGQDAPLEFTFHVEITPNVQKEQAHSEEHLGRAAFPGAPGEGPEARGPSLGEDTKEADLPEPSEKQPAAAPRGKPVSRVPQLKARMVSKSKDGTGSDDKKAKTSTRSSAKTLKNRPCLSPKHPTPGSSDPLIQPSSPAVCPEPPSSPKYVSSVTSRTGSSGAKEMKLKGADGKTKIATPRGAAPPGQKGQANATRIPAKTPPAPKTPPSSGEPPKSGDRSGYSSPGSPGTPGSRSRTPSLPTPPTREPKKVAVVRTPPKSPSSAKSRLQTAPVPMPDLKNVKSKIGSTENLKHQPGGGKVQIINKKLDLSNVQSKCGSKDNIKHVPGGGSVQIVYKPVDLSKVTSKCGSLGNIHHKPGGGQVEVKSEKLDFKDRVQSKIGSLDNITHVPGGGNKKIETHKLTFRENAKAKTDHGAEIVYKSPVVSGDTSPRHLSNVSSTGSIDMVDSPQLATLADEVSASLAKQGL

How did the Potency turn out when NC(=S)Nc1ccc(Oc2ccc(NC(N)=S)cc2)cc1 was run?
The Potency was “inactive”.

How did the Potency turn out when CCOc1ccc2nc(NC(=O)Cn3[nH]c(=O)c4ccccc4c3=O)sc2c1 was run?
The Potency was inconclusive: 2.24 µM [inhibitor, partial curve].

Which Potency does the source give for N#CC1=C(Nc2ccccc2)SC=C(c2ccccc2)N=C1N1CCOCC1 here?
Its Potency is inconclusive: 25.1 µM [inhibitor, partial curve, poor fit].

Which Potency does the source give for CCC(=O)Nc1cccc(-c2nc3cc(C)ccc3o2)c1 here?
Its Potency is “inactive”.

How did the Potency turn out when CCC(=O)Nc1ccc2nc(C)n(Cc3ccccc3Cl)c(=O)c2c1 was run?
Its Potency is inconclusive: 14.1 µM [inhibitor, partial curve, poor fit].

Which Potency does the source give for CCOC(=O)c1ccc(NC(=O)CCc2nc3cccnc3n2Cc2cccs2)cc1 here?
The Potency was inconclusive: 12.6 µM [inhibitor, partial curve].

O=C(Nc1ccc(O)cc1)c1ccc(C(=O)c2ccccc2)o1 was tested. Which Potency did it give?
The Potency was inconclusive: 10 µM [inhibitor, partial curve].

Which Potency does the source give for COc1ccc(Br)cc1CN(C)CC(=O)Nc1ccccc1Cl here?
The Potency was inconclusive: 39.8 µM [inhibitor, single point].

Cc1cccc(NC(=O)/C(C#N)=C/c2ccc(C)o2)c1 was tested. Which Potency did it give?
The Potency was inconclusive: 3.55 µM [inhibitor, full curve].

Which Potency does the source give for CCOC(=O)c1c(N)sc(C(O)(C(F)(F)F)C(F)(F)F)c1-c1ccc(F)cc1 here?
Its Potency is “inactive”.

For CC(C)(C)C1CCC(OCC(O)CN2CCN(c3ccccc3)CC2)CC1 (centres undefined), which Potency is on record?
The Potency was inconclusive: 11.2 µM [inhibitor, partial curve].

Which Potency does the source give for O=C(CSc1nncc2ccccc12)N1CCCCC1 here?
Its Potency is “inactive”.

How did the Potency turn out when CCNc1nc(NCC)nc(N(C#N)CCOc2ccccc2)n1 was run?
Its Potency is “inactive”.

For CC(=O)Nc1cccc(-c2csc(NCc3ccccc3)n2)c1, which Potency is on record?
Its Potency is inconclusive: 7.94 µM [inhibitor, partial curve].

Which Potency does the source give for COc1cc(/C=C/C(=O)c2ccc(C)cc2)ccc1OCC#N here?
Its Potency is inconclusive: 28.2 µM [inhibitor, partial curve].

With CCC[C@@H]1C[C@@]1(CCC)[C@@H](NP(=O)(c1ccccc1)c1ccccc1)c1ccc(C(=O)OC)cc1 as the compound, how does the Potency read?
Its Potency is inconclusive: 39.8 µM [inhibitor, single point].

Which Potency does the source give for Nc1cc2nc[nH]c2cc1N here?
Its Potency is active: 22.4 µM.

CC(C)c1nn2c(N)c(/C=C3\C=Nc4ccccc43)c(=O)nc2s1 was tested. Which Potency did it give?
Its Potency is inconclusive: 15.8 µM [inhibitor, partial curve].

COc1ccc(-n2nc(N)c(C(N)=O)n2)cc1 was tested. Which Potency did it give?
Its Potency is “inactive”.

With Cc1ccc(N=C2NC(=O)/C(=C\c3ccco3)S2)cc1 as the compound, how does the Potency read?
The Potency was inconclusive: 25.1 µM [inhibitor, partial curve].

Which Potency does the source give for CCOC(=O)c1cnc(N2CCN(c3ccc(OC)cc3)CC2)c2ccccc12 here?
Its Potency is inconclusive: 15.8 µM [inhibitor, partial curve].

Which Potency does the source give for O=C(N/N=C1\CCCc2ccccc21)c1cccc(Br)c1 here?
The Potency was inconclusive: 10 µM [inhibitor, partial curve, poor fit].

For Cn1cnc([N+](=O)[O-])c1Sc1ncnc2nc[nH]c12, which Potency is on record?
Its Potency is inconclusive: 39.8 µM [inhibitor, single point] and inconclusive: 25.1 µM [inhibitor, partial curve] and inconclusive: 28.2 µM [inhibitor, single point].

CNC(=O)/C(=C\C=C\c1ccccc1)NC(=O)c1ccc([N+](=O)[O-])cc1 was tested. Which Potency did it give?
The Potency was inconclusive: 15.8 µM [inhibitor, partial curve, poor fit].

CC(=O)c1cccc(NC(=O)Nc2cc3sccc3n2C)c1 was tested. Which Potency did it give?
Its Potency is inconclusive: 12.6 µM [inhibitor, partial curve].

With Cc1oc(-c2ccccc2F)nc1CS(=O)CC(=O)NCc1ccc2c(c1)OCO2 (centres undefined) as the compound, how does the Potency read?
The Potency was inconclusive: 39.8 µM [inhibitor, partial curve, poor fit].

CC1(C)c2ccccc2N2CCC(=O)NC21/C=C/c1ccco1 (centres undefined) was tested. Which Potency did it give?
The Potency was inconclusive: 31.6 µM [inhibitor, partial curve].

For c1ccc(N2CCN(c3ncccn3)CC2)cc1, which Potency is on record?
The Potency was inconclusive: 11.2 µM [inhibitor, partial curve].

With COc1ccc(-c2nc(S(=O)(=O)c3ccc(C)cc3)c(N3CCCCC3)o2)cc1 as the compound, how does the Potency read?
The Potency was inconclusive: 22.4 µM [inhibitor, partial curve, poor fit].

How did the Potency turn out when Cc1cc(-c2ccccc2)nc2c(Br)c(=O)[nH]n12 was run?
The Potency was active: 10 µM.

For Cc1nn(-c2ccccc2)c(Cl)c1C(=O)NCc1cccs1, which Potency is on record?
The Potency was “inactive”.

Which Potency does the source give for CC(C)=NN/C(N)=N/C(=S)Nc1ccc(C)cc1 here?
The Potency was inconclusive: 25.1 µM [inhibitor, single point].

For COc1cc(/C=N/NC(=O)c2cccc([N+](=O)[O-])c2)ccc1OCc1ccc(C)cc1, which Potency is on record?
The Potency was inconclusive: 1.78 µM [inhibitor, full curve].

For Cc1ccc(-c2ccc(/C=N/NC(N)=S)o2)cc1, which Potency is on record?
Its Potency is inconclusive: 17.8 µM [inhibitor, partial curve].

For CC(=O)c1cc(C(=O)N2CCc3c([nH]c4ccccc34)C2CC(C)C)[nH]n1 (centres undefined), which Potency is on record?
The Potency was inconclusive: 20 µM [inhibitor, single point].

How did the Potency turn out when O=c1ccc(Oc2nc(N3CCOCC3)nc(N3CCOCC3)n2)nn1-c1ccccc1 was run?
The Potency was “inactive”.

NC(=O)C1CCCNC1 (centres undefined) was tested. Which Potency did it give?
Its Potency is inconclusive: 3.98 µM [activator, partial curve].

How did the Potency turn out when O=C(CCc1ccccc1)NNC(=O)c1ccco1 was run?
Its Potency is “inactive”.

How did the Potency turn out when O=C(/C=C/c1cc(Br)ccc1O)c1ccco1 was run?
Its Potency is inconclusive: 14.1 µM [inhibitor, partial curve].

Which Potency does the source give for Cc1ccc(-c2cc(C(=O)OCC(=O)Nc3cc(C)on3)c3ccccc3n2)c(C)c1 here?
The Potency was “inactive”.

For CCn1c2ccccc2c2nc3ccccc3nc21, which Potency is on record?
Its Potency is inconclusive: 31.6 µM [inhibitor, partial curve].

COC(=O)c1cc(COc2ccc3oc(C)c(C(=O)OC(C)C)c3c2)c(C)o1 was tested. Which Potency did it give?
The Potency was inconclusive: 31.6 µM [inhibitor, single point].

Which Potency does the source give for O=C1CC(c2ccco2)Cc2nc(NCC3CCCO3)ncc21 (centres undefined) here?
The Potency was “inactive”.

Which Potency does the source give for CCc1ccc(NC(=O)N2CCN(c3ccccc3)CC2)cc1 here?
Its Potency is inconclusive: 8.91 µM [inhibitor, partial curve].
